This passage reports self-cleavage results from the RNAGym collection of RNA variant scans (doi:10.1093/nar/gkz1192).

The source gives no read counts; variants with many changes may rest on few reads.

The labels stand for the following.
B1: CPEB3 Ribozyme (parent)
chain: UAACAGGGGGCCACAGCAGAAGCGUUCACGUCGCAGCCCCUGUCAGAUUCUGGUGAAUCUGCGAAUUCUGCUGUAUAUCUC

This data set covers variants of B1. The data set is described as follows: self-cleavage, relative activity (ratio to wild type); higher = more cleavage; in vitro, sequencing. In short, it runs like this: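 Libraries of CPEB3 self-cleaving ribozyme mutants came from rounds of error-prone PCR and carried barcodes, which DNA sequencing matched to variants. In vitro transcription used T7 RNA polymerase at 37°C for 5 hours, with a further 15 min in DNase I before EDTA stopped the reaction; the ribozymes cleaved during both steps. The RNA was reverse transcribed with template switching and sequenced on Illumina. Relative activity is the cleaved/total read fraction of a variant divided by that of the unmutated ribozyme, averaged over three batches with at least 5 reads.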
For the variant UAACAGGGGGCCACAGCAGAAGCGUUCACGUCGCAGCCCCUGCCAGAUUCUGGUGAAUCUGCGUAUUCUGCCGUAUGUCUC [U43C A64U U72C A77G], the self-cleavage came to 0.13.
In the case of UAACAGGGGGCCACAGCAGAAGCGUUCACGUCGCAGCCCCUGCCAGGUUCCGGCGAAUCUGCGAAUUCUGCUGUAUAUCAC [U43C A47G U51C U54C U80A], the self-cleavage was 0.47.
In the case of UAACAGGGGGCCACAGCAGAAGCGUUCACGUCGCAGCCCCUGCCAGAUUCUGGUGGAACUGCGAAUUCUGCUGUAUAUCUC [U43C A56G U58A], the self-cleavage came to 0.15.
The result for UAACAGGGGGCCACAGCAGAAGCGUUCACGUCGCAGCCCCUGCCAGAUUCUGGUGAAUCUGCGAGUUCUGCAGUAUAUCUC [U43C A65G U72A] reads 0.18.
On to UAACAGGGGGCCACAGCAGAAGCGUUCACGUCGCAGCCCCUGCCAGGUUCAGGUGAAUCUGCGAAUUCUGCUGUAUAACCC [U43C A47G U51A U78A U80C], for which the self-cleavage stood at 0.35.
The result for UAACAGGGGGCCACAGCAGAAGCGUUCACGUCGCAGCCCCUGCCAGAUUCUGGUGAGUCUGCGAAUUCUGCUGUGUAUCUC [U43C A57G A75G] reads 0.15.
Take UAACAGGGGGCCACAGCAGAAGCGUUCACGUCGCAGCCCCUGCCAGGUUCUGGUGAAUCUGCGAAUUCUGCUGUACAUCUC [U43C A47G U76C]: the self-cleavage is 0.5.
With UAACAGGGGGCCACAGCAGAAGCGUUCACGUCGCAGCCCCUGCCAGAUUCUGGUGGAUCGGCGGAUUCUGCUGUAUAUCUC [U43C A56G U60G A64G], the self-cleavage amounted to 0.1.
Regarding UAACAGGGGGCCACAGCAGAAGCGUUCACGUCGCAGCCCCUGCCAGAUUCUGGUGAAUCUGCGAUUUCUGCUGUAUUUCUC [U43C A65U A77U], the self-cleavage is 0.09.
For the variant UAACAGGGGGCCACAGCAGAAGCGUUCACGUCGCAGCCCCUGCCAGAUUCUGGUGAAUCUGCUGAUCCUGCUGUAUAACUC [U43C G63U A64G U67C U78A], the self-cleavage worked out at 0.
Take UAACAGGGGGCCACAGCAGAAGCGUUCACGUCGCAGCCCCUGCCAGAUUCUGGUGAGUCUGCGUAUCCAGCUGUAUAUCUC [U43C A57G A64U U67C U69A]: the self-cleavage is 0.1.
As for UAACAGGGGGCCACAGCAGAAGCGUUCACGUCGCAGCCCCUGCCAGGUUCCGGUGAAUCUGCGAAUUCUGCUGUAUAUCUC [U43C A47G U51C], the self-cleavage worked out at 0.62.
For UAACAGGGGGCCACAGCAGAAGCGUUCACGUCGCAGCCCCUGCCAAAUACUGGUGUAUCUGCGAAUUCUGCCGUAUAUCUC [U43C G46A U49A A56U U72C], the self-cleavage was determined as 0.06.
With UAACAGGGGGCCACAGCAGAAGCGUUCACGUCGCAGCCCCUGCCAGAUUCUGGUGAGUCUACGAGUUCUGCUGUAAAUCUC [U43C A57G G61A A65G U76A], the self-cleavage is 0.14.
In the case of UAACAGGGGGCCACAGCAGAAGCGUUCACGUCGCAGCCCCUGCCAGAUUCUGGUGAAUCUGCGUAUUCUGCUGUAUAUCUU [U43C A64U C81U], the self-cleavage was 0.32.
Turning to UAACAGGGGGCCACAGCAGAAGCGUUCACGUCGCAGCCCCUGCCAGAUUCUGGUGAGUCUGCGAAUUCUGCUGUAUAUCGC [U43C A57G U80G], the self-cleavage was determined as 0.2.
As for UAACAGGGGGCCACAGCAGAAGCGUUCACGUCGCAGCCCCUGCCAGGUUCUGGUGAAUCUGCGAAUUCUGAUGUAUAUUUC [U43C A47G C71A C79U], the figure is 0.25.
For the variant UAACAGGGGGCCACAGCAGAAGCGUUCACGUCGCAGCCCCUGCCAGAUUCUGGUGGAUCUGCGAGUUCUGCUGUAUAUCUC [U43C A56G A65G], the self-cleavage turned out to be 0.12.
As for UAACAGGGGGCCACAGCAGAAGCGUUCACGUCGCAGCCCCUGCCAGAUUCUGGUGAGUCUGCGAGUUCUGCCGUAUAUCUC [U43C A57G A65G U72C], the figure is 0.2; as for UAACAGGGGGCCACAGCAGAAGCGUUCACGUCGCAGCCCCUGCCAGAUUCUGGUGAGUCUGCGAAUGCUGCUGUAUAUCUC [U43C A57G U67G], 0.14; as for UAACAGGGGGCCACAGCAGAAGCGUUCACGUCGCAGCCCCUGCGAGAUUAAGGUGAAUCUGCGAAUUCUGCUGUAUAUCCC [U43C C44G C50A U51A U80C], 0.1.
The result for UAACAGGGGGCCACAGCAGAAGCGUUCACGUCGCAGCCCCUGCCAGAUUCUGGUGGAUCUGCGAAUUCUGCGGUAUAUCUC [U43C A56G U72G] reads 0.24.
As to UAACAGGGGGCCACAGCAGAAGCGUUCACGUCGCAGCCCCUGCCAGAUUCUGAUGAAUCUGCGAAUUCUGCUGAGUAUCUC [U43C G53A U74A A75G], the self-cleavage was 1.01.
As for UAACAGGGGGCCACAGCAGAAGCGUUCACGUCGCAGCCCCUGCCAGAUUCUGGUGAAUCUGCGGAUUCUGCCGUGUAUCUC [U43C A64G U72C A75G], the self-cleavage is 0.53.
UAACAGGGGGCCACAGCAGAAGCGUUCACGUCGCAGCCCCUGCCAGAUUCUGGUGCAUCUGCGAAUCCUGCUGUAUACCUC [U43C A56C U67C U78C]: the self-cleavage stood at 0.18.
On to UAACAGGGGGCCACAGCAGAAGCGUUCACGUCGCAGCCCCUGCCAAAUUCUGGUGUAUCUGCGAAUUCUGCUGUAUAACUC [U43C G46A A56U U78A], for which the self-cleavage came to 0.07.
For the variant UAACAGGGGGCCACAGCAGAAGCGUUCACGUCGCAGCCCCUGCCAGAUUCUGGUGUAUCUGCGAAUUCUGCUGUCUAUCUC [U43C A56U A75C], the self-cleavage came to 0.17.
The result for UAACAGGGGGCCACAGCAGAAGCGUUCACGUCGCAGCCCCUGCCAGAUUCUGGUGAAUCUGCGAAUUCUGUUGAAUAGCUC [U43C C71U U74A U78G] reads 0.38.
Take UAACAGGGGGCCACAGCAGAAGCGUUCACGUCGCAGCCCCUGCCAGAUUCUGGUGAGUCUGCGCAUUCUGCUGGAUAUCUC [U43C A57G A64C U74G]: the self-cleavage turned out to be 0.15.
As for UAACAGGGGGCCACAGCAGAAGCGUUCACGUCGCAGCCCCUGCCAGGUUCUGGUGAAUCUGCGAAUUCUGCAGUAUAUCUC [U43C A47G U72A], the self-cleavage worked out at 0.2.
In the case of UAACAGGGGGCCACAGCAGAAGCGUUCACGUCGCAGCCCCUGCCAGAUUCUGGUGAAUCUGCGAAUUCUGUGGUAUAUCUC [U43C C71U U72G], the self-cleavage turned out to be 0.1.
Consider UAACAGGGGGCCACAGCAGAAGCGUUCACGUCGCAGCCCCUGCCAGGUUCUGGCGAACCUGCGAAUUCUGCUGUAUAUCUC [U43C A47G U54C U58C], for which the self-cleavage is 0.88.
UAACAGGGGGCCACAGCAGAAGCGUUCACGUCGCAGCCCCUGCCAGAUUACGGUGAAUCUGCGAAUUCUGCUGCAUAUCUC [U43C C50A U51C U74C]: the self-cleavage amounted to 0.61.
Take UAACAGGGGGCCACAGCAGAAGCGUUCACGUCGCAGCCCCUGCCAGGUUCUGGUGAGUCUGCGAAUUCUGCUGUAUAUCUC [U43C A47G A57G]: the self-cleavage turned out to be 0.43.
